Variants at the background level are over-represented here.
B1: TPR 5TU (parent)
chain: GGAUCUUCUCGAUCUAACAAAAAAGACAAAUCUGCCACAAAGCUUGAGAGCAUCUUCGGAUGCAGAGGCGGCAGCCUUCGGUGGCGCGAUAGCGCCAACGUUCUCAACUAUGACACGCAAAACGCGUGCUCCGUUGAAUGGAGUUUAUCAUG

Variants of: B1
Experiment: polymerase ribozyme fitness, log enrichment relative to wild type (log ratio); higher = more active; in vitro selection for triplet polymerase activity
Outline: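 Libraries of mutants in each subunit of a heterodimeric triplet polymerase ribozyme were generated by PCR and transcribed. In triplicate, each went through one in vitro selection round: annealing with biotinylated primer, partner subunit and triplets; frozen incubation at −7 °C; gel excision of extended constructs; streptavidin-bead capture; RT-PCR. Fitness, taken from Illumina sequencing of input and output libraries, is the logarithm of a genotype's enrichment over wild-type enrichment, averaged across replicates with inverse-variance weights. The logarithm is base 2, and genotypes needed ≥10 input reads and ≥1 read per output to be kept.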

Variant	polymerase ribozyme fitness (log ratio)
A28G C35A U45A G86U U101G C125G G126A	≤ -4.2
A28G C36U	≤ -4.2
A28G C38U C103A G152A	≤ -4.2
A28G C38U U55A C57U G94C A106G C123A	≤ -4.2
A28G C54G U56A A60C C85U G86A C105A C118G G124A G140A U144C U145G A147U A150C	≤ -4.2
A28G C54U C93A U127A	≤ -4.2
A28G C54U U90C G94A C131U	≤ -4.2
A28G C63U G83A G92U G94A A142C	≤ -4.2
A28G C93U C105G	≤ -4.2
A28G G34U G80A U102A C108G	≤ -4.2
A28G G42U	≤ -4.2
A28G G46A C57U U82C C93U A106U G126U A142C	≤ -4.2
A28G G46A C85A A91G	≤ -4.2
A28G G46U G59A G81C G83U	≤ -4.2
A28G G48A G88U	≤ -4.2
A28G G48U G50C G94A C96G A110G	≤ -4.2
A28G G50A C93A A98U U104G	≤ -4.2
A28G G50C A122G U145C U148A	≤ -4.2
A28G G58U	≤ -4.2
A28G G68C C93U	≤ -4.2
A28G G80A G141A	≤ -4.2

Variant	polymerase ribozyme fitness (log ratio)
A28G G92U	≤ -4.2
A28G U44A C79U	≤ -4.2
A28G U44G A91U C99U	≤ -4.2
A28G U45A C103G A122U C123U	≤ -4.2
A28G U53A C116U C118A	≤ -4.2
A28G U55G G58C G88C G140U	≤ -4.2
A28U A29C U45A G58C C85U C105U A106G	≤ -4.2
A28U A29G C75G G81U C85G A106C C129A	≤ -4.2
A28U A37C U55A U77G C85A C87G G112U A121G U144C	≤ -4.2
A28U A39G A66G C76A G81C	≤ -4.2
A28U A39G C54A U77G C87A G94A A97G A150G	≤ -4.2
A28U A39U C85U G133C A150U	≤ -4.2
A28U A40C C54G U78G A89U G141U	≤ -4.2
A28U A40C C75G C87A C95U C105G A121U	≤ -4.2
A28U A40U U56A G68A A73G G74U U135G	≤ -4.2
A28U A41C C96U G136U U144A	≤ -4.2
A28U A41U C79G G86A G136A G152A	≤ -4.2
A28U A47C	-3.9
A28U A47C C76U U82G C95U	≤ -4.2
A28U A47C G88C U144C	≤ -4.2
A28U A47C U130G	≤ -4.2

Variant	polymerase ribozyme fitness (log ratio)
A28U A47G G50C C95G	≤ -4.2
A28U A49C C85G A122U	≤ -4.2
A28U A49C G58U A60G U61A G84A C105G G141A G152C	≤ -4.2
A28U A52C A66G A121U U145G C149G	≤ -4.2
A28U A52C A91C G92U	≤ -4.2
A28U A52G C85U G88A C95G U109G	≤ -4.2
A28U A64U C79G C95U A113U C114U C125U	≤ -4.2
A28U A66C G83U A122G	-4.16
A28U A66U A73G G86U C103G C116U G152U	≤ -4.2
A28U A73G	≤ -4.2
A28U A137C G140U U144C	≤ -4.2
A28U C32G C63U C75A G84A C131A U135C	≤ -4.2
A28U C32U G42C G84A A89G G92A C131A U148A	≤ -4.2
A28U C32U U33A U56C	≤ -4.2
A28U C35A G42A	≤ -4.2
A28U C35G U90C C118G	≤ -4.2
A28U C38A C85G C118A G143C	≤ -4.2
A28U C43G C75U C76G C95A U109A	≤ -4.2
A28U C43U C72U G84A C93G C132U A147C	≤ -4.2
A28U C43U C87U U146A	≤ -4.2
A28U C51A U77C G94A	≤ -4.2

Variant	polymerase ribozyme fitness (log ratio)
A28U C57A C85G C95G G136A G140U C149G	≤ -4.2
A28U C57A C93G A106G	≤ -4.2
A28U C57G C69A G84C C93U G94C U101C C149U	≤ -4.2
A28U C75A U78G G86U C99G U102G C116U U139A	≤ -4.2
A28U C75U U82G G86A G88C C108G G143A	≤ -4.2
A28U C85G C116G U134C C149G	≤ -4.2
A28U C85U G92C A98C A142C	≤ -4.2
A28U C93U C99U C108U C129G G133U	≤ -4.2
A28U C93U G140U	≤ -4.2
A28U C93U G141U	≤ -4.2
A28U C96U	-3.66
A28U C96U U144G	≤ -4.2
A28U C99U A107C	≤ -4.2
A28U C103G C105U C149A	≤ -4.2
A28U C103G G152U	≤ -4.2
A28U G42A A49C C72A C76G	≤ -4.2
A28U G42U C43G U53G U78C G92C G128U	≤ -4.2
A28U G46A C105G	≤ -4.2
A28U G48A G74C C96U C131A	≤ -4.2
A28U G50A C132U	≤ -4.2

Reference: the RNAGym collection of RNA variant scans (doi:10.1073/pnas.2313332121)
